According to PubChem BioAssay AID1347417 (National Center for Advancing Translational Sciences (NCATS), 2020):
Hit rate of the full screen: of about 120,000 compounds, about 5,300 (4.4%) were called active. The inconclusive results got no clear call from the source; some entries with a clear call stand among them for comparison. Calls come from the whole dose curve; as a rule, active = well fitted inhibition curve with a large enough effect; inconclusive = small, poorly fitted or top-dose-only effect; inactive = no such curve, though single readings can be large or run the other way. A potency beside an inconclusive call is a rough fit, not a confirmed value.

Test: qHTS Primary assay for Inhibitors of Plasmodium falciparum Dd2 growth in vitro; note: nearly all actives have a fitted effect of over 65% in size;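 for activity, negative = inhibition: plate controls were DMSO vehicle for no effect and reference drug for full effect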
Conditions: P. falciparum Dd2 growth, SYBR Green, 72 h; activity, negative = inhibition: at 28.9 µM (top of the series) unless noted; series mostly up to 28.9 µM
Summary of the method: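 Readout: SYBR Green fluorescence, 485 nm excitation, 535 nm emission, after ~16 h lysis at 37C. Before that, Dd2-infected red cells (2.5% hematocrit) grew 72 h with compound, 29 uM top final concentration.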
Potency is the fitted concentration of half-maximal effect; tags give direction and shape of the fitted curve.

| Structure (SMILES) | Potency | activity, negative = inhibition | outcome |
| --- | --- | --- | --- |
| Cc1cccc(NC(=O)N2CC(=O)Nc3sc4c(c3C2c2ccccc2)CCCC4)c1C (stereo not given) | active: 11.2 µM | – | – |
| CCOC(=O)C1CCN(C(=O)c2ccc(-n3ccc4ccccc43)s2)CC1 | – | inactive: -14.2% | – |
| COc1cncc(-c2cc(C(=O)NCc3cccnc3)c3c(c2)N(C)CCO3)c1 | inconclusive: 1.26 µM [inhibitor, partial curve] | – | – |
| Cn1nc(C(=O)N2CC(N(C3CCOCC3)S(C)(=O)=O)C2)c2ccccc21 | – | inactive: -16.1% | – |
| COc1ccc(N(C)C(=O)c2cn(C3CCCCC3)c(=O)c3c2c2ccccc2n3C)cc1 | inconclusive: 17.8 µM [inhibitor, single point] | – | – |
| O=C(Nc1ccc(OC(F)(F)F)cc1)N1CCOC[C@H](Oc2ccccc2)C1 | inconclusive: 11.2 µM [inhibitor, single point] | – | – |
| COc1ccc(C2=NN(CC(=O)NCCc3ccc(OC)c(OC)c3)C(=O)CC2)cc1 | – | inactive: 4.14% | – |
| O=C(CC1C(=O)NCCN1Cc1cccc(Oc2ccccc2)c1)NC1CCOCC1 (stereo not given) | – | inactive: -31.5% | – |
| CCN1C(=O)COC[C@@H]1[C@H](O)c1ccc(NC(=O)CCc2ccccc2)cc1 | inconclusive: 10 µM [inhibitor, partial curve, poor fit] | – | – |
| CCn1ccc2cc(S(=O)(=O)N3CCCN(C(=O)Nc4cccc(Cl)c4)CC3)ccc21 | inconclusive: 10 µM [inhibitor, single point] | – | – |
| CC(C)CN1C(=O)c2cccn2CC1CN (stereo not given) | inconclusive: 11.2 µM [inhibitor, single point] | – | – |
| O=C(CN1CC2CC(C1)[C@H]1CCCC(=O)N1C2)N1CCN(Cc2ccc3c(c2)OCO3)CC1 (stereo not given in full) | – | inactive: -12.6% | – |
| Cc1ccc(-n2nc(C)c([C@@H]3C=C[C@@H](NCc4ccc(F)cc4)C3)c2C)cc1Cl | active: 3.55 µM | – | – |
| CC(=O)Nc1ccc(C(=O)N2CCC3(CC2)N=C(c2ccc(C)cc2)NO3)cc1 | inconclusive: 3.98 µM [inhibitor, single point] | – | – |
| COc1ccccc1-c1nnc(SCC(=O)c2ccc(Cl)cc2)n1-c1ccccc1 | inconclusive: 8.91 µM [inhibitor, single point] | – | – |
| O=C(Cn1nc2c(cc1=O)CCCCC2)N1CCC(c2ccccc2)CC1 | – | inactive: -12.3% | – |
| O=C(CCNc1c(-c2cccc(F)c2)nc2cnccn12)NCC1CCCO1 (stereo not given) | – | – | inactive |
| CC(NC(=O)c1ccc2c(c1)CCN2S(=O)(=O)c1ccc(Cl)cc1)c1ccccc1 (stereo not given) | inconclusive: 17.8 µM [inhibitor, single point] | – | – |
| CSc1cccc(NC(=O)CN2C(=O)COc3ccc(Cl)cc32)c1 | inconclusive: 2.24 µM [inhibitor, full curve, poor fit] | – | – |
| Cc1ccc(C2Cn3cnc(C(=O)N4CCC(C(=O)NC5CCCCC5)CC4)c3CO2)cc1 (stereo not given) | – | inactive: -19.2% | – |
| c1ccc(CN2CCC[C@H]2c2nc(-c3ccc(N4CCOCC4)nc3)no2)cc1 | inconclusive: 10 µM [inhibitor, partial curve] | – | – |
| Cc1cc(N2CCCCC2)nc2ccc(NC(=O)c3cccc(Cl)c3)cc12 | inconclusive: 1.58 µM [inhibitor, partial curve, poor fit] | – | – |
| CN1C(=O)C(CC(=O)NCC2CCN(Cc3ccc(F)cc3)CC2)=C2CCCCC21 (stereo not given) | active: 5.01 µM | – | – |
| COc1cccc(CNC(=O)c2cc3c(s2)-c2ccccc2OC3)c1 | – | inactive: 17.5% | – |

| Structure (SMILES) | Potency | activity, negative = inhibition | outcome |
| --- | --- | --- | --- |
| COc1ccc(-n2c(=O)c3c4c(sc3n(Cc3ccc(F)cc3)c2=O)CCCC4)c(OC)c1 | inconclusive: 17.8 µM [inhibitor, single point] | – | – |
| COc1ccc(-c2nc(-c3ccccc3)nc3c2CN(C(=O)C2CCCC2)CC3)cc1 | inconclusive: 10 µM [inhibitor, single point] | – | – |
| Cc1cccc(-c2nc(Cn3c(-c4ccccc4)nc(C)c(CCO)c3=O)c(C)o2)c1 | – | inactive: -3.08% | – |
| COc1ccccc1NC(=O)C(=O)NCCc1csc(-c2cccc(F)c2)n1 | inconclusive: 0.0631 µM [inhibitor, full curve, poor fit] | – | – |
| O=C(C[C@@H]1CCNC[C@@H]1Cc1cc(COc2ccccc2)on1)NCc1ccccc1 | inconclusive: 17.8 µM [inhibitor, single point] | – | – |
| COc1ccc(CN2C[C@@H](F)[C@@H](OCc3nc4ccccc4o3)C2)cn1 | inconclusive: 10 µM [inhibitor, single point] | – | – |
| Cc1noc(C)c1[S+](=O)([O-])N(C)Cc1ccc(-c2ccccc2)cc1 | inconclusive: 17.8 µM [inhibitor, single point] | – | – |
| COc1cc(F)ccc1CN1CCCCC12Cc1ccccc1CNC2=O (stereo not given) | inconclusive: 6.31 µM [inhibitor, partial curve] | – | – |
| O=C(c1ccc(Cl)cc1)N1CCC2(CN[S+](=O)([O-])c3cccnc3O2)C1 (stereo not given) | – | inactive: 16.8% | – |
| CN1CCN([C@H]2CCN(C(=O)c3ccc(N(C)C)nc3)C[C@H]2CCC(=O)O)CC1 | – | inactive: 10.9% | – |
| CCOc1ccc(C(=O)N2CCC(c3n[nH]c(=O)n3-c3ccc(C)cc3)CC2)cc1 | – | – | inactive |
| Cc1ccccc1CN1C(=O)CN=C(c2ccccc2)c2cc(Cl)ccc21 | inconclusive: 1.78 µM [inhibitor, partial curve] | – | – |
| CCN1C(=O)c2ccccc2Sc2ccc(C(=O)NCCCN(CC(C)C)CC(C)C)cc21 | inconclusive: 7.94 µM [inhibitor, partial curve, poor fit] | – | – |
| O=C(Nc1cccs1)N1CCNc2cnc(Nc3cccc(F)c3)nc2C1 | inconclusive: 22.4 µM [inhibitor, single point] | – | – |
| O=C(CC1CCc2ccccc21)N1CCN(S(=O)(=O)N2CCCC2)CC1 (stereo not given) | – | inactive: -3.96% | – |
| O=C(NCc1cccs1)c1nc(-c2ccccc2)c2ccccn12 | inconclusive: 11.2 µM [inhibitor, partial curve] | – | – |
| Cc1ccc2c(c1)N1C(=O)OC[C@@H]1CCN(C(=O)c1ccc(C(F)(F)F)cc1)C2 | – | inactive: -43.6% [at 44.1 µM] | – |
| CCOC(=O)c1cccc(NC(=O)[C@@H](c2ccccc2)N2Cc3ccccc3C2=O)c1 | inconclusive: 12.6 µM [inhibitor, single point] | – | – |
| O=c1[nH]c2cccnc2n1CCc1ccccc1 | – | – | inactive [at 44.1 µM] |
| NCC(=O)N1CCCC2(Cc3ccccc3CN2C(=O)c2cccc(Cl)c2)C1 (stereo not given) | active: 11.2 µM | – | – |
| Cc1ccc(OCC(=O)N2CCN(CCc3ccncc3)CC2)cc1C | active: 10 µM | – | – |
| CN1C[C@H]2CNC[C@@]2(C(=O)NCc2ccccc2OCc2ccccc2)C1 | inconclusive: 3.98 µM [inhibitor, single point] | – | – |
| CN1CCC(N[C@@H]2CO[C@H](CNC(=O)Nc3ccccc3)[C@H]2O)CC1 | – | inactive: 18.6% [at 44.1 µM] | – |
| Cc1cccc(OCC(=O)N(Cc2cccs2)c2ccc(Cl)cc2)c1C | – | – | inactive |

| Structure (SMILES) | Potency | activity, negative = inhibition | outcome |
| --- | --- | --- | --- |
| CC(C)(C)OC(=O)N1CCC(c2c(C(=O)N3CCC(c4ccccc4)C3)cnn2-c2cccc(Cl)c2)CC1 (stereo not given) | active: 3.55 µM | – | – |
| COc1ccccc1-c1cc(C(=O)NCc2cccs2)nn2cnnc12 | – | inconclusive: -36.7% [inhibitor] | – |
| COc1ccc(C2CC(=O)N(CC(=O)Nc3cc(C)ccc3C)c3ccccc3S2)cc1 (stereo not given) | – | inactive: -7.15% | – |
| O=C(c1ccccc1F)N1CCC2(C1)C(=NC1CCCCC1)NC(=O)N2c1cccnc1 (stereo not given) | – | inactive: 13.3% | – |
| COc1ccc(N(C)C(=O)CCn2cnc3onc(-c4ccc(F)cc4)c3c2=O)c(OC)c1 | inconclusive: 10 µM [inhibitor, single point] | – | – |
| CN1CCCC2(C1)CN(C)c1ccc(C(=O)Nc3ccc(F)cc3)cc12 (stereo not given) | – | – | inactive [at 44.1 µM] |
| CC1(c2ccccc2)N(Cc2ccc(O)cc2)C(=O)OC12CCN(C(=O)c1ccccc1)CC2 (stereo not given) | inconclusive: 1 µM [inhibitor, full curve, poor fit] | – | – |
| CCOc1ccccc1C1C(C(=O)N2CCCCC2)=C(C)Nc2nc3ccccc3n21 (stereo not given) | inconclusive: 1.12 µM [inhibitor, single point] | – | – |
| CC(C)CCNC(=O)c1c(OCC2CC2)cc(=O)n2c1CCOCC2 | – | inactive: -9.99% | – |
| Cc1nc2c(OCC(=O)c3ccccc3)cccn2c(=O)c1-c1cc(C)n(-c2ccc(Cl)cc2)n1 | inconclusive: 2.51 µM [inhibitor, full curve] | – | – |
| Cc1cc2nn(-c3ccccc3)nc2cc1NC(=O)c1cccc2c(Cl)cccc12 | – | inactive: 46% | – |
| CCC(C)NC(=O)N1CC(Oc2ccc(-c3noc(C4CCOCC4)n3)cc2)C1 (stereo not given) | inconclusive: 0.0794 µM [inhibitor, full curve, poor fit] | – | – |
| COc1cccc(CN2CCc3nc(C(=O)N4CCOCC4)oc3CC2)c1 | inconclusive: 2.82 µM [inhibitor, single point] | – | – |
| CCSc1nnc2n(-c3cccc(C)c3)c(=O)c3c4c(sc3n12)CCCC4 | inconclusive: 11.2 µM [inhibitor, partial curve] | – | – |
| COc1ccc(CCC(=O)N2CCc3c([nH]c4ccccc34)C2c2ccc(F)cc2)cc1 (stereo not given) | inconclusive: 17.8 µM [inhibitor, single point] | – | – |
| COc1ccc(CN2C=C(C(=O)OCc3nc(C4CCCCC4)no3)C(C)=NS2(=O)=O)cc1 | inconclusive: 17.8 µM [inhibitor, single point] | – | – |
| O=C1CSC2(C(=O)N(Cc3ccccc3F)c3ccccc32)N1c1ccc(F)cc1 (stereo not given) | inconclusive: 17.8 µM [inhibitor, single point] | – | – |
| Cc1ccc(S(=O)(=O)NC[C@H]2OC[C@@H](NCc3ccncc3)[C@@H]2O)cc1 | – | inactive: -8.18% [at 44.1 µM] | – |
| CC(=O)N1C[C@@H](Oc2ccccc2)C[C@@H]1C(=O)N1CCOCC1 | – | inactive: 34.3% | – |
| CN1CCN(c2nc3c(c(=O)[nH]2)CCN(Cc2cccc(Cl)c2F)CC3)CC1 | – | – | inactive [at 5.79 µM] |
| CCn1nccc1C(=O)N1CCCC2(C=Cc3ccccc3O2)CC1 (stereo not given) | – | inactive: -14% | – |
| O=C(NC1CCCCC1)[C@@H]1C[C@@H](O)CN1C1CCN(C(=O)c2ccsc2)CC1 | – | inactive: -14% | – |
